{
  "source": "patent US20250019377A1",
  "about": "(JACOBIO PHARMACEUTICALS CO., LTD, priority 2021, published 2025)",
  "key": {"[1]": {"tested_on": "p-ERK in NCI-H460 cells (K-Ras Q61H)", "assay": "Phospho-ERK1/2(THR202/TYR204) HTRF assay, NCI-H460", "type": "cell-based", "conditions": "Homo sapiens, 2 hours incubation"}, "MKN-1 cells (K-Ras WT)": {"tested_on": "MKN-1 cells (K-Ras WT)", "assay": "3D cell growth inhibition assay, MKN-1", "type": "cell-based", "conditions": "Homo sapiens, 144 h, MKN-1, K-Ras WT, 6 days, absolute IC50"}, "[2]": {"tested_on": "NCI-H460 cells (K-Ras Q61H)", "assay": "3D cell growth inhibition assay, NCI-H460", "type": "cell-based", "conditions": "Homo sapiens, 144 h, 6 days, absolute IC50"}, "SW620 cells (K-Ras G12V)": {"tested_on": "SW620 cells (K-Ras G12V)", "assay": "2D cell growth inhibition assay, SW620", "type": "cell-based", "conditions": "Homo sapiens, SW-620, 144 h, 6 days, absolute IC50"}, "[3]": {"tested_on": "TCC-PAN2 cells (K-Ras G12R)", "assay": "3D cell growth inhibition assay, TCC-PAN2", "type": "cell-based", "conditions": "144 h, 6 days, absolute IC50"}, "[4]": {"tested_on": "p-ERK in NCI-H747 cells (K-Ras G13D)"}, "[5]": {"tested_on": "p-ERK in TCC-PAN2 cells (K-Ras G12R)", "assay": "Phospho-ERK1/2(THR202/TYR204) HTRF assay, TCC-PAN2", "type": "cell-based", "conditions": "2 hours incubation"}, "[6]": {"tested_on": "p-ERK in MKN-1 cells (K-Ras WT amplification)", "assay": "Phospho-ERK1/2(THR202/TYR204) HTRF assay, MKN-1", "type": "cell-based", "conditions": "Homo sapiens; MKN-1, K-Ras WT, 2 hours incubation"}, "[7]": {"tested_on": "AsPC-1 cells (K-Ras G12D)", "assay": "2D cell growth inhibition assay, AsPC-1", "type": "cell-based", "conditions": "Homo sapiens, ASPC1, 144 h, AsPC-1, K-Ras G12D, 6 days, absolute IC50"}, "AGS cells (K-Ras G12D)": {"tested_on": "AGS cells (K-Ras G12D)", "assay": "2D cell growth inhibition assay, AGS", "type": "cell-based", "conditions": "Homo sapiens, 144 h, 6 days, absolute IC50"}},
  "data": [
    {"smiles": "C#Cc1c(F)ccc2cc(O)cc(-c3ncc4c(N5C6CCOCC5C6)nc(OC[C@@]56CCCN5C[C@H](F)C6)nc4c3F)c12", "note": "(stereo partly drawn) [Compound 42, 4-(4-(3-oxa-7-azabicyclo[4.1.1]octan-7-yl)-8-fluoro-2-(((2R,7aS)-2-fluorotetrahydro-1H-pyrrolizin-7a(5H)-yl)methoxy)pyrido[4,3-d]pyrimidin-7-yl)-5-ethynyl-6-fluoronaphthalen-2-ol trifluoroacetic acid]", "values": [
      {"measurement": "IC50", "setting": "[1]", "value": 10, "unit": "nM"},
      {"measurement": "IC50", "setting": "MKN-1 cells (K-Ras WT)", "value": 8.69, "unit": "nM"},
      {"measurement": "IC50", "setting": "[2]", "value": 113, "unit": "nM"},
      {"measurement": "IC50", "setting": "SW620 cells (K-Ras G12V)", "value": 4.18, "unit": "nM"},
      {"measurement": "IC50", "setting": "[3]", "value": 428, "unit": "nM"},
      {"measurement": "IC50", "setting": "[4]", "value": 2.56, "unit": "nM"},
      {"measurement": "IC50", "setting": "[5]", "value": "~1000", "unit": "nM"},
      {"measurement": "IC50", "setting": "[6]", "value": 7.55, "unit": "nM"},
      {"measurement": "IC50", "setting": "[7]", "value": 135, "unit": "nM"},
      {"measurement": "IC50", "setting": "AGS cells (K-Ras G12D)", "value": 39.1, "unit": "nM"}
    ]}
  ]
}
